Experimental findings from the supplement of paper PMC11417369 are described below.

The other results are listed elsewhere or left out.

This test concerns PfHDP1 homeodomain (GST-tagged). The test is described as follows: gcPBM binding intensity (ln(normalized median fluorescence intensity)); higher = stronger DNA binding. In a few lines:
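DNA-binding domains from P. falciparum, fused to GST and produced in E. coli, were put on an Agilent 4 × 180k double-stranded probe array for 1 h in 1× PBS holding 1% milk, 0.2 mg/ml BSA, 0.5% salmon testes DNA and 0.03% Triton X-100. Probes were primer-extended, 36 bp long and drawn from intergenic genomic regions, with negative controls included. After Alexa488 anti-GST antibody detection and a 488 nm scan, binding intensity was set as the highest Masliner-normalised natural-log median intensity across replicate spots of either probe orientation.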
Turning to “TTATTATTGTTATGTTGTACTTTTACAAACTTTTTG [XGTACX_site8797]”, the “gcPBM binding intensity (ln)” value amounted to 6.61.
On to “AAGAAAATAGGGTTCATAGGATTATACTTTTGGAAT [TGCATGCA_negctrl_site80]”, for which the “gcPBM binding intensity (ln)” value stood at 6.1.
Take “TAATAAAAGATATATACACACAAATAAATAAATAAA [CACACA_site7818]”: the “gcPBM binding intensity (ln)” value is 6.79.
“AAATATAAAAAAAATATATAATTTTTACATCGAATT [CACACA_negctrl_site544]”: the “gcPBM binding intensity (ln)” value is 6.11.
For “ATAATATAAACATATTGTACACATATATTGCTATTT [XGTACX_site2799]”, the “gcPBM binding intensity (ln)” value worked out at 6.93.
Take “AAAAAAAAATATATATATATATATATAAATAAATTT [CACACA_negctrl_site519]”: the “gcPBM binding intensity (ln)” value was found to be 6.66.
Then “ACATCAAGCAGACACACACACACACCCACCCACCGA [CACACA_site371]”, with 6.5.
Then “CTTTTTTAAATTATTGCACACAAAAATGAAAGGAAA [CACACA_site8412]”, with 10.1; and “ATTTATTTATATAGAAGTACATATTTATTTATATAT [XGTACX_site6283]”, with 6.14; and “TAGAAATATAATTAATGTACATATGATATTATATAT [XGTACX_site923]”, with 6.42.
Then “TATTTTATCTAAGGATGTACATTATTAAGAAAATGT [XGTACX_site6123]”, with 6.09.
For “ATATATTTATTAAGGTGTACAAAAATTATGTTGCAT [XGTACX_site7546]”, the “gcPBM binding intensity (ln)” value was found to be 6.81.
In the case of “ATATAATGTGTAGGCCGTATTTACGTTTGGCAATCA [CACACA_negctrl_site1130]”, the “gcPBM binding intensity (ln)” value turned out to be 6.37.
With “TATACAATATAAAATACACACGCACCCAAAAAAAAA [CACACA_site9174]”, the “gcPBM binding intensity (ln)” value turned out to be 7.15.
“ATTTTTTTATTTGATTGTACAATTTTCTTTCAAAAT [XGTACX_site2902]”: the “gcPBM binding intensity (ln)” value came to 7.19.
Consider “TATAATATAATATATATATATATATATATATAAGAA [CACACA_negctrl_site78]”, for which the “gcPBM binding intensity (ln)” value is 6.99.
With “TTCATATAAATACATGCACACAAAAATATCAATACA [CACACA_site8753]”, the “gcPBM binding intensity (ln)” value is 8.91.
On to “ATATATTTTATTACCAGTACATATATTAAAATAATA [XGTACX_site8440]”, for which the “gcPBM binding intensity (ln)” value came out at 6.38.
On to “ATCTATTTCTATTGTTGTACTTATTTTTCATTGTTT [XGTACX_site6942]”, for which the “gcPBM binding intensity (ln)” value is 7.18.
For “CGATTACTAATTTTTAGTACATATAATCAATATGTA [XGTACX_site7857]”, the “gcPBM binding intensity (ln)” value was determined as 5.83.
“ATGTAGCCTTACGCTTGTACGAATATCTTAATTTTT [XGTACX_site4331]”: the “gcPBM binding intensity (ln)” value stood at 6.09.
“AGGGTTACAAGAGGAACACACAAAAAAATAAATAAA [CACACA_site1436]”: the “gcPBM binding intensity (ln)” value was 6.86.
As to “AAAAAAAATAGACACACACACATACACATAAATATA [CACACA_site7742]”, the “gcPBM binding intensity (ln)” value amounted to 6.93.
On to “TTTATATTACAATAATATATTAAAAAATAAAATATA [TGCATGCA_negctrl_site18]”, for which the “gcPBM binding intensity (ln)” value worked out at 6.17.
Consider “TTTGTAATAAACTACTTTTTTTTTTTTTTTTTTTTT [CACACA_negctrl_site571]”, for which the “gcPBM binding intensity (ln)” value was 6.72.
The value for “ATTAAATCTATATATACACACATGTTTGGTATATTC [CACACA_site2657]” was 6.88; that for “AAACAAAATGGTAACACACACATATATAAATATGTA [CACACA_site6994]” was 6.33; that for “TAAGAAATAAATAGTACACACATAGACACCCACCCA [CACACA_site8429]” was 7.64.
The value for “CCTAAATATTTTTTATGTACATATTTATCTAAATTT [XGTACX_site6835]” was 6.87; that for “TGAGGAAACATGAGATGTACATATAAATTTTTTTTT [XGTACX_site2595]” was 5.93.
For the sequence “ATAGAAATTATAAATAGTACATAATAAAAATGAGCA [XGTACX_site822]”, the “gcPBM binding intensity (ln)” value is 6.73.
For “ATTAAAGAGATATATACACACATTATGGGGGAATAA [CACACA_site6226]”, the “gcPBM binding intensity (ln)” value was found to be 7.13.
As for “TATTATAAAGAAATTACACACATGCAATGAAAAAAA [CACACA_site1697]”, the “gcPBM binding intensity (ln)” value was determined as 6.82.
For “TCGTTTCCTTAAAATTGTACTTTTTTTTTTTTTTTT [XGTACX_site64]”, the “gcPBM binding intensity (ln)” value was determined as 6.54.
Consider “TAATGATAAATACATACACACAAAAAATAATATATA [CACACA_site2576]”, for which the “gcPBM binding intensity (ln)” value was 6.86.
For “TGTTATTATTTGTACACACACATATAGATCCTTGTT [CACACA_site7667]”, the “gcPBM binding intensity (ln)” value was 7.07.
Take “AGAGTATATATATATGCATGCATATCTCATATTTAT [TGCATGCA_site509]”: the “gcPBM binding intensity (ln)” value stood at 6.71.
Turning to “AATGTGGTATTTACAAAAAGGCTTTATACTTAAAAA [XGTACX_negctrl_site566]”, the “gcPBM binding intensity (ln)” value stood at 6.24.
Turning to “TGATTATCCTATATATATTTCATAATGGAAAAAAAT [TGCATGCA_negctrl_site444]”, the “gcPBM binding intensity (ln)” value stood at 6.3.
In the case of “AAAAATAGTCTTCTTGCACTTTTTAATTTATTTTAA [CACACA_negctrl_site1322]”, the “gcPBM binding intensity (ln)” value worked out at 6.76.
In the case of “TATATTTTGTTTTTGTGTACATATTGGTAGTTATTT [XGTACX_site7659]”, the “gcPBM binding intensity (ln)” value came to 6.95.
Then “CTTTTCATCTTCTTAACACACAAAAAAAAAAAAAAA [CACACA_site3886]”, with 6.45; and “TGGGAATAACGACACACACACACACGGATATAAATA [CACACA_site7633]”, with 7.01; and “AAAAACGATTAATGTGTACACACATAGTTATAAACA [CACACA_site8659]”, with 7.04.
In the case of “TTTTTTTTTTTTTAATGTACAAATATGGTGACAAAA [XGTACX_site8709]”, the “gcPBM binding intensity (ln)” value is 6.63.
“ATATATATATATATATGTACATATATTTTCTTTTTG [XGTACX_site6017]”: the “gcPBM binding intensity (ln)” value was found to be 9.35.
For “TTGTTCTATAATTATACATGCATTAACAGAGTAAAA [TGCATGCA_site909]”, the “gcPBM binding intensity (ln)” value came out at 7.99.
As to “AGGATAACATACAAAAGTACATAAAACTAAAAAAAC [XGTACX_site26]”, the “gcPBM binding intensity (ln)” value is 7.02.
In the case of “AAGAAAATATAACAAAGTAAAAACATATTATATATA [TGCATGCA_negctrl_site248]”, the “gcPBM binding intensity (ln)” value amounted to 6.12.
As to “TATATATATTTTTGAAGTACTTATTACACTAGCATT [XGTACX_site8965]”, the “gcPBM binding intensity (ln)” value is 6.74.
For the sequence “AATGTGCTCGCTATTACACACTCATTGGGATAAAAT [CACACA_site8627]”, the “gcPBM binding intensity (ln)” value was determined as 7.89.
Turning to “AGTAACAATTATTATGCATGTACAAATAATCATTTT [TGCATGCA_site867]”, the “gcPBM binding intensity (ln)” value came to 6.45.
Consider “TTTATTAAACTTGACACACACACACCCACATATATA [CACACA_site760]”, for which the “gcPBM binding intensity (ln)” value came to 6.9.
Then “ATATTATATAGAAACACACATACACATGTAAATATA [CACACA_site2037]”, with 6.99; and “ATCTTATATTATCACACACACACGCACAAAACAGAA [CACACA_site1463]”, with 7.52; and “ATATAGAAAATGCATACACACTTTATATATATATTT [CACACA_site4658]”, with 6.43.
Turning to “TAATTATTTCGTATATTTGAATGGTACATGCTTATA [CACACA_negctrl_site1178]”, the “gcPBM binding intensity (ln)” value was 6.24.
Then “ATGGATTTTACCATAGCACACATATATGAATATTTT [CACACA_site8535]”, with 6.49; and “AAAATTCAGCGAAAGGGTACATATGTGTAAGGGTAA [XGTACX_site8205]”, with 7.43; and “TATATTTATATACCAACACACATACATATTTATATA [CACACA_site6931]”, with 6.62.
As to “CTATTATATCAGTAGACACACATATAACATTTATAT [CACACA_site141]”, the “gcPBM binding intensity (ln)” value worked out at 6.67.
As to “ATATAAAAAAAAAAAAAAAAATATATATATATATAT [GTGCAC_negctrl_site251]”, the “gcPBM binding intensity (ln)” value is 9.37.
Consider “GATATACTGTCAATTCTACACACCATAGGGGGAGCA [CACACA_site8562]”, for which the “gcPBM binding intensity (ln)” value came out at 7.33.
Regarding “TTGGTTTGAAAGAAAGAAATTATTAAAAAGGAAATA [CACACA_negctrl_site26]”, the “gcPBM binding intensity (ln)” value is 6.34.
“GTATGAAAAAAAATATGTACACATATATATTTGGTA [XGTACX_site6309]”: the “gcPBM binding intensity (ln)” value turned out to be 6.45.
Take “TTGTGTTCTTATTTTTACACCGAAAAATATTAAAAG [CACACA_negctrl_site535]”: the “gcPBM binding intensity (ln)” value worked out at 6.6.
Then “CCTTTATACATTTTCTGTACTGATATATATTAAAAA [XGTACX_site8467]”, with 6.83.
The value for “TACTGATCCACATTTATACACACCTCGGTTTGTAGA [CACACA_site417]” was 6.84.
Take “ATATATATATATACAACACACATGTAATATATAAAT [CACACA_site3294]”: the “gcPBM binding intensity (ln)” value came out at 9.13.
Then “TATAGATTCTTTTAATGTACATGTCTTTTCATTTCC [XGTACX_site8348]”, with 6.45; and “TTTTTAAATATATAATAGAATTGATTGTATTATATA [CACACA_negctrl_site196]”, with 6.04; and “GAAAATATATTATTTACACACATGTTCAAATTAAAA [CACACA_site3761]”, with 6.59.
As to “AAACAATTTATGTGTAGTACATGTTGGAGATAATTT [XGTACX_site6000]”, the “gcPBM binding intensity (ln)” value came to 6.69.
Regarding “TATTAAATATAAGTCACACATAATTTTTCGTCCTTT [CACACA_site5065]”, the “gcPBM binding intensity (ln)” value came out at 6.24.
Then “TTGTTTTTTTCTTTTTGTACATATACAACATACATA [XGTACX_site8996]”, with 6.79; and “CATACACCCGGACACACACACACACCCATATATAAT [CACACA_site4494]”, with 7.24.
Consider “ATCATAACACCTCCACACAAATAAATATAACATATA [XGTACX_negctrl_site269]”, for which the “gcPBM binding intensity (ln)” value came to 6.73.
Then “ATGAGTGCACAAATATATATATATATATATATATAT [CACACA_negctrl_site404]”, with 10.7; and “GTTATACGCATATATACACACATATGTAAATATATA [CACACA_site3280]”, with 7.08.
For “CTTTTTATTAAATATGCATGTGTATCAACAGTGAAT [TGCATGCA_site447]”, the “gcPBM binding intensity (ln)” value was 6.81.
The value for “TAAAAAAAATAGCATACACACATATATACCTATATA [CACACA_site4535]” was 6.2; that for “ATTTATTTTAATTTTTTTTTTTCTCTTTTGGATCTA [CACACA_negctrl_site1408]” was 5.79; that for “AATGAATTTAATTCTACTATTTTTTTTTTAAATATT [XGTACX_negctrl_site296]” was 6.
Consider “TTCTCAAAGTTTACGTGTACATAAATTATATAAATG [XGTACX_site2622]”, for which the “gcPBM binding intensity (ln)” value is 6.52.
For “TGTAATATGAAATGTGTACACACGCACCCACAAAAA [CACACA_site8948]”, the “gcPBM binding intensity (ln)” value is 7.66.
Turning to “ATTAGGCATATTTTCTGTACACAATAATAAAAAAAA [XGTACX_site3957]”, the “gcPBM binding intensity (ln)” value worked out at 6.54.
Then AAACAAAGGGAACATGTGCACTTACAAAAAAAAAGA, with 9.91.
